56 variants from the RNAGym collection of RNA variant scans (doi:10.7554/elife.90254) can be followed below.

B1: LINE1-mini (parent)
chain: GGCAGAGCUCAACACAGCGUGGCAAAGUGGCUGUGGCUAGACUGCC

The source gives no read counts; variants with many changes may rest on few reads.

The variants in the data set derive from B1. In words: self-cleavage, relative activity (ratio to wild type); higher = more cleavage; in vitro, sequencing; the parent is a self-cleaving ribozyme.
As for GGCAAAGCUCAACACAGCGUGCCACAGUGGGUGGGGCUAGACUGCC [G5A G22C A25C C31G U34G], the self-cleavage came out at 0.02. The figure for GGCAAAGCUCAACACAGCGUGGCAAACUGGCUGUAGAUAGACUGCC [G5A G27C G35A C37A] is 0.09. The figure for GGCAAAGCUCAACACAGCGUGGCAAAGUGGCUGGGGCUAGACUUCC [G5A U34G G44U] is 0.03; for GGCAAAGCUCAACACAGCGUGUCAAAGUGGCUGUUGCUAGACUGCC [G5A G22U G35U] it is 0.22.

In the case of GGCAAAGCUCAACACAGCGUGGCAAAUUGGCUGUGGCUACACUGAC [G5A G27U G40C C45A], the self-cleavage amounted to 0.04. The figure for GGCACCGCUCAACACAGCGUGGCAAAGUGGCUGUGGCUAGAGUGCC [G5C A6C C42G] is 0.69; for GGCAAAGCACAACACAGCGUGGCAAAUUGGCUCUGGCGAGACUGCC [G5A U9A G27U G33C U38G] it is 0.03; for GGCAAAUCUCAACACAGCGUGUCAAAGUGUCUGUGGCUAAACUGCC [G5A G7U G22U G30U G40A] it is 1.91. The figure for GGCAAAGCUCAACACAGCAUGGCAAUGUGGCUGUGGCUAGACUGCC [G5A G19A A26U] is 0.08.

In the case of GGCAAAGCACAACACAGCGUGGCAAUGGGGCUGUGGCUAGACUGCC [G5A U9A A26U U28G], the self-cleavage was 0.07. Turning to GGCAAAGCUCAACACAGCGUGGCAAAGUGGCUUUGGCGAGAAUGCC [G5A G33U U38G C42A], the self-cleavage was found to be 0.01.

In the case of GGCAAAGCUCAACACAGCGUGGCAAAGUGUCUUUGGCUAGACUGCC [G5A G30U G33U], the self-cleavage is 0.11. With GGCAAAGCUCAACACAUCGUGGCAAAGUGGCUGUGGCUAGAUUGCC [G5A G17U C42U], the self-cleavage worked out at 0.1. Take GGCACUGCUCAAUACAGCGUGGCAAAGUGGCUGUGGCUAGACUGCU [G5C A6U C13U C46U]: the self-cleavage turned out to be 0.07. The figure for GGCAAAGCUCAACACAGCGUGGCAAAGUGGCUGAGACUAGACUGCC [G5A U34A G36A] is 0.05; for GGCAAAGCUCAACACAACGUGGGAAAGUGGCUGUGUCUAGACUGCC [G5A G17A C23G G36U] it is 0.04. The figure for GGCAAAACUCAAAACAGCGUAGCAAAGUGGCUGUGGCUAGACUGCC [G5A G7A C13A G21A] is 0.74; for GGCAAAGCUCAACACAGCGUAGCAAAUUGGCAGUGGCUAGACUGCC [G5A G21A G27U U32A] it is 0.49; for GGCAAACCUCAUCACAGCGUGGCAAAGUGGCUGUGGCGAGACUGCC [G5A G7C A12U U38G] it is 0. The figure for GGCAAAGCUCAACACACCGUGGCAAAGUGGCAGUGGCUAGACUGCC [G5A G17C U32A] is 0.14; for GGCAAACCUCAACACAGCGUGGCAAAGUGGCUAUGGGUAGACUGCC [G5A G7C G33A C37G] it is 0.04; for GGCAAAGCUCAACACAGCGUGGCAAAGUGGCUCUGGCUAGACUGCA [G5A G33C C46A] it is 0.2. With GGCAAAGCUCAACACAGCGUGGCAAAGUGGCAGUGGCCCGAAUGCC [G5A U32A U38C A39C C42A], the self-cleavage was 0.04.

In the case of GGCACAGCUCCACUCAGCGUGGCAAAGUGGCUGUGGCUAGACUGCC [G5C A11C A14U], the self-cleavage came out at 0.01. The figure for GGCACUCCUCAACACAGCAUGGCAAAGUGGCUGUGGUUUGAGUGCC [G5C A6U G7C G19A C37U A39U C42G] is 0.18. For the variant GGCAAAGCUCAACACAUCGAGGCAAAGUGGAUGUGGCUAGAAUGCC [G5A G17U U20A C31A C42A], the self-cleavage turned out to be 0.08. The figure for GGCAAAGCUCAACACAGCGAGUCAAAGUGGCUGUGGCUAGACUGCC [G5A U20A G22U] is 0.05. The figure for GGCAAAGCUCAACACAGCUUGGCAAAGUGGCUGUGUCUAGACUGCC [G5A G19U G36U] is 0.03; for GGCAAAUCUCAUCACAGCAUGGCAAACUGGCGGUGGCUAGACUGCC [G5A G7U A12U G19A G27C U32G] it is 0.06; for GGCAAAGCACAACACACUGUGGCAAAGUGGCUGUUGCUAGACUACG [G5A U9A G17C C18U G35U G44A C46G] it is 0.03. With GGCAAAGCUCAACACAGCGUGGCAAAGUGGCUAUGACUAGACUGCA [G5A G33A G36A C46A], the self-cleavage came to 0.03. For the variant GGCACGGCUCGACACAGCGAGUCAAAGUGGCUGUGGCUAGACUGAC [G5C A6G A11G U20A G22U C45A], the self-cleavage turned out to be 0.01. The figure for GGCAAAGCUCAACACAGCAUGGCAAAGUGGCUGUGGAUAGAAUGCG [G5A G19A C37A C42A C46G] is 0.11; for GGCAAAGCGCAACACACCGUUUCAAAGUGGCUGUGGCUAGACUGCC [G5A U9G G17C G21U G22U] it is 0.17; for GGCAAAGCUCAACACAGCGUGGCAAAUUGGCUGUGGCUAAACUGCC [G5A G27U G40A] it is 0.04.

In the case of GGCAAAGCGCAACACAGCGUGGCAAACUGGCUGUGGCACGACUGCC [G5A U9G G27C U38A A39C], the self-cleavage worked out at 0.05. The figure for GGCAAAGCUCAACACAGCGUGGCAAAGUGUGUGUGGCUAGACUGCC [G5A G30U C31G] is 0.09; for GGCACUGCUCAACACCGCGUGGCAAAGUGGCUGUGGCUUGACUGCC [G5C A6U A16C A39U] it is 0.01. Regarding GGCAAAGCUCAACACAGCGUGGCAAAGUAGCUGUGGCCAUACUGCC [G5A G29A U38C G40U], the self-cleavage worked out at 0.17. As for GGCAAAGCUCAACACAGCGUGGUAAAGUGGCUGUGGCCAGACUUCC [G5A C23U U38C G44U], the self-cleavage stood at 0.08.

On to GGCAAAGCUCAACACAGCGUGGCAAAGCGUUUGUGGCUAGACUGCC [G5A U28C G30U C31U], for which the self-cleavage amounted to 0.04. The figure for GGCAAAGCUCAACACAGCGUGGCAAAGUUGCUGUGGCUAGACUGCU [G5A G29U C46U] is 0.02; for GGCACGGCUCAAGACACCGUGGCAAAGUGGCUGUGGCUAGACUGCC [G5C A6G C13G G17C] it is 0.06; for GGCAAAGCUCAACACAGCGUGGCAAAGUGGCUGUUACUAGACUGCC [G5A G35U G36A] it is 0.02.

In the case of GGCAAACCACAAUACAGCGUGGCAAUGUGGCUGUGGCUAGCAUGCC [G5A G7C U9A C13U A26U A41C C42A], the self-cleavage came out at 0.23. Regarding GGCAAAGCUCAACACAGCGUGGCAAAGUGACUUUGGCUAGACUGCC [G5A G30A G33U], the self-cleavage turned out to be 0.21.

Regarding GGCAAAGCUCAACACAGCGUGGCAAAGUGGCUGUGACUAGACUUCC [G5A G36A G44U], the self-cleavage was 0.36. The figure for GGCAAAGCUCAACACAGCGUGUCAAAGUGUCAAUGGCUAGACUGCC [G5A G22U G30U U32A G33A] is 0.06; for GGCAAAGCUCAACACAGUGGGGCAAACUUGCUGUGGCUAGACUGGC [G5A C18U U20G G27C G29U C45G] it is 0.25. The figure for GGCAAAGCUCAACACAGUGUGGCAAAGUGGCUGUAGCUAGACUGCC [G5A C18U G35A] is 0.29; for GGCAAAGCUCAACACAGCAUGGCAAAAUGGCUGUUGCUACACUGCC [G5A G19A G27A G35U G40C] it is 0.09. The figure for GGCAAAGCUCAACACAGCGUGGCAAAGAGGCUGUGGCUAGACUGCU [G5A U28A C46U] is 0.04. Consider GGCAAAACUCAAAACAGCGUGGAAAAGUGGCUGUGGCUAGAGUGCC [G5A G7A C13A C23A C42G], for which the self-cleavage amounted to 0.11.

In the case of GGCAAAGCUCAACACAGCGUGGUUAAGUGGCUGUGACUAGACUGAC [G5A C23U A24U G36A C45A], the self-cleavage is 0.29. The figure for GGCACUGCUCAACACAGCGUGGCAAAGUGGCUGUGGCUAGACUGGC [G5C A6U C45G] is 0.2.

GGCAAAUAUCAACACAGCGUGGCAAAGCGGCUGUGGCUAGACUUCC [G5A G7U C8A U28C G44U]: the self-cleavage amounted to 1.92.
